# Test results taken from PubChem BioAssay (Tox21).
# “And” between values parts separate entries of the source, which are not always exact repeats. Identical values can stand only once. This list was built around the results that the source calls inconclusive (neither active nor inactive); the mix of calls is not that of the screen. For some of these results: Potencies of inconclusive entries are doubtful fits and often do not repeat. A structure can be active in one record and inactive in another. The source made the active and inactive calls. Unless noted, calls come from the whole dose curve; as a rule, active = well fitted curve in the direction sought with a large enough effect in the repeat runs; inconclusive = weak or mixed curves; inactive = no such curve, though single readings can be large; an effect the other way counts as inactive or inconclusive.
# What was measured:
# [1] = qHTS assay to identify small molecule agonists of the estrogen receptor beta (ER-beta) signaling pathway - cell viability counter screen (AID 1259380); note: nearly all actives have a fitted effect of over 30% in size
# Summary of the method: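 CellTiter-Glo read, 30 min RT, same wells as bla assay; cells ER-beta-UAS-bla HEK293T; 16 hr compound, 37C; medium 2% charcoal-stripped FBS.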
# [2] = target: Progesterone receptor (Homo sapiens) (UniProt P06401); test: qHTS assay to identify small molecule agonists of the progesterone receptor (PR) signaling pathway (AID 1346784; calls by dose curve; note: nearly all actives have a fitted effect of over 30% in size; for activation: % is set by controls: 0 for no effect and ±100 for the full control effect); conditions: PR-UAS-bla HEK293T, beta-lactamase FRET ratio, 16 h; activation: at 92.4 µM (top of the series) unless noted
# Summary of the method: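 The screen uses PR-UAS-bla HEK 293T cells in charcoal-stripped serum (2%). Compounds are applied for 16 hr at 37C after a 6 hr pre-incubation, and reporter activity is detected with a FRET beta-lactamase substrate after 2 hr at room temperature.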
# [3] = target: Progesterone receptor (Homo sapiens) (UniProt P06401); test: qHTS assay to identify small molecule antagonists of the progesterone receptor (PR) signaling pathway (AID 1346795; active = well fitted inhibition curve with a large enough effect in the signal ratio in the repeat runs, not every such curve was filed as active; inconclusive = weak or mixed curves; the % refers to the signal ratio; for activity change, negative = inhibition: % is set by controls: 0 for no effect and ±100 for the full control effect); conditions: PR-UAS-bla HEK293T, beta-lactamase FRET ratio, 16 h; activity change, negative = inhibition: at 92.4 µM (top of the series) unless noted
# Summary of the method: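 After 6 hr plating at 37C in 2% stripped-serum medium, PR-UAS-bla HEK293T cells got compounds, then 1 nM R5020. Sixteen hours later, LiveBLAzer substrate was applied for 2 hr at room temperature and fluorescence was recorded.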
# [4] = qHTS assay to identify small molecule antagonists of the progesterone receptor (PR) signaling pathway - cell viability counter screen (AID 1346798); note: nearly all actives have a fitted effect of over 50% in size
# Summary of the method: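 Viability was determined by ATP-based luminescence (CellTiter-Glo) in PR-UAS-bla HEK293T cells cultured in 2% charcoal-stripped serum and incubated 16 hr with compounds under R5020 stimulation.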
# [5] = qHTS assay to identify small molecule agonists of the progesterone receptor (PR) signaling pathway - cell viability counter screen (AID 1346799; calls by dose curve; note: nearly all actives have a fitted effect of over 45% in size)
# Summary of the method: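 Viability was scored by ATP luminescence (CellTiter-Glo, 30 min, room temperature) in the same wells used for the reporter readout, after 16 hr compound exposure of PR-UAS-bla HEK293T cells.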
# [6] = qHTS assay to identify small molecule antagonists of the TGF-beta/Smad signaling pathway - cell viability counter screen (AID 1346824); note: nearly all actives have a fitted effect of over 50% in size
# Summary of the method: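 Cytotoxicity counter-screen run in the same wells as the beta-lactamase Smad reporter read: CellTiter-Glo luminescence after 30 min at room temperature. HEK 293T SBE-bla cells had 5 hr compound exposure at 37 C with TGF-beta1 (0.25 ng/mL stock).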
# [7] = qHTS assay to identify small molecule agonists of the TGF-beta/Smad signaling pathway (AID 1346859; active = well fitted activation curve with a large enough effect in the signal ratio in the repeat runs, not every such curve was filed as active; inconclusive = weak or mixed curves; the % refers to the signal ratio); conditions: SBE-bla HEK293T, TGF-beta/Smad beta-lactamase reporter, 5 h; activation: at 76.8 µM (top of the series)
# Summary of the method: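 Dual-wavelength fluorescence (460/530 nm emission) quantified beta-lactamase expression under the Smad binding element in HEK 293T cells following 5 hr compound treatment at 37 C.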
# [8] = target: Thyrotropin-releasing hormone receptor (Homo sapiens) (UniProt P34981); test: qHTS assay to identify small molecule antagonists of the thyrotropin-releasing hormone receptor (TRHR) signaling pathway (AID 1346877; active = well fitted inhibition curve with a large enough effect in the repeat runs, not every such curve was filed as active; inconclusive = weak or mixed curves)
# Summary of the method: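 Following an 18 h incubation at 37 °C and a 2 h calcium dye load, TRHR-HEK293 cells were exposed to compound (5 min, room temperature) and challenged with TRH, 1 nM final.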
# [9] = target: Thyrotropin-releasing hormone receptor (Homo sapiens) (UniProt P34981); test: qHTS assay to identify small molecule agonists of the thyrotropin-releasing hormone receptor (TRHR) signaling pathway (AID 1346891; calls by dose curve;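 for activation: HEK293 cells expressing TRHR with calcium dye readout; % is set by controls: 0 for no effect and ±100 for the full control effect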)
# Summary of the method: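 Kinetic fluorescence (3 min, 1 s intervals) reported intracellular calcium after compound transfer onto TRHR-Hek293 cells pre-loaded with dye for 2 h at 37 °C.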
# [10] = qHTS assay to identify small molecule antagonists of the TGF-beta/Smad signaling pathway (AID 1346924; active = well fitted inhibition curve with a large enough effect in the signal ratio in the repeat runs, not every such curve was filed as active; inconclusive = weak or mixed curves; the % refers to the signal ratio); conditions: SBE-bla HEK293T, TGF-beta/Smad reporter, beta-lactamase ratio; activity, negative = inhibition: at 76.8 µM (top of the series) unless noted
# Summary of the method: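 SBE-bla HEK 293T cells were plated overnight, then received compound in DMSO plus TGF-beta1 (added as a 0.25 ng/mL solution) and were incubated 5 h at 37 C. Beta-lactamase reporter activity was read after 2 h at room temperature with LiveBLAzer B/G FRET substrate (ex 405, em 460/530 nm).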
# [11] = Human pregnane X receptor (PXR) small molecule agonists, qHTS cell viability counter screen (AID 1346977); note: nearly all actives have a fitted effect of over 50% in size
# Summary of the method: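 HepG2 cells stably carrying the PXR-Luc reporter are cultured with 5% charcoal-stripped FBS and treated with compounds for 24hr. CellTiter-Fluor is added at 23hr and fluorescence is read after 1hr.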
# [12] = Caspase-3/7 induction in HepG2 cells by small molecules, qHTS assay (AID 1346978); note: nearly all actives have a fitted effect of over 15% in size
# Summary of the method: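 Caspase-3/7 induction was measured by Caspase-Glo 3/7 luminescence (30 min, room temperature) after a 17 hr compound exposure of wild-type HepG2 cells seeded at 2,000 per well and pre-incubated 5 hr.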
# [13] = qHTS assay to identify small molecule agonists of the TGF-beta/Smad signaling pathway - cell viability counter screen (AID 1346829); note: nearly all actives have a fitted effect of over 45% in size
# Summary of the method: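 Same-well cytotoxicity: CellTiter-Glo added after the 2 hr room-temperature beta-lactamase substrate step, luminescence measured 30 min later; cells had 5 hr of compound at 37 C.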
# [14] = Caspase-3/7 induction in CHO-K1 cells by small molecules, qHTS cell viability counter screen (AID 1346979); note: nearly all actives have a fitted effect of over 35% in size
# Summary of the method: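 Seeding: 1,500 CHO-K1 cells/well. Rest: 5hr, 37C. Treatment: compounds in DMSO, 16hr. Read: CellTiter-Fluor, 1hr, fluorescence.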
# [15] = qHTS assay to identify small molecule agonists of the estrogen receptor alpha (ER-alpha) signaling pathway in the presence of an antagonist - cell viability counter screen (AID 1259386);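 note: cells exposed to compounds for 22 h at 37 °C before the viability read; nearly all actives have a fitted effect of over 30% in size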
# Summary of the method: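 Viability counter screen using VM7Luc4E2 (full-length ER-alpha, four ERE-luciferase). The cells were treated with compounds alongside ICI-182,780 10.0nM for 22hr, and live-cell protease fluorescence was quantified with CellTiter-Fluor.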
# Potency is the fitted concentration of half-maximal effect; tags give direction and shape of the fitted curve or compound fluorescence and quenching.
# Chain of UniProt P06401 (P06401 whole entry, looked up): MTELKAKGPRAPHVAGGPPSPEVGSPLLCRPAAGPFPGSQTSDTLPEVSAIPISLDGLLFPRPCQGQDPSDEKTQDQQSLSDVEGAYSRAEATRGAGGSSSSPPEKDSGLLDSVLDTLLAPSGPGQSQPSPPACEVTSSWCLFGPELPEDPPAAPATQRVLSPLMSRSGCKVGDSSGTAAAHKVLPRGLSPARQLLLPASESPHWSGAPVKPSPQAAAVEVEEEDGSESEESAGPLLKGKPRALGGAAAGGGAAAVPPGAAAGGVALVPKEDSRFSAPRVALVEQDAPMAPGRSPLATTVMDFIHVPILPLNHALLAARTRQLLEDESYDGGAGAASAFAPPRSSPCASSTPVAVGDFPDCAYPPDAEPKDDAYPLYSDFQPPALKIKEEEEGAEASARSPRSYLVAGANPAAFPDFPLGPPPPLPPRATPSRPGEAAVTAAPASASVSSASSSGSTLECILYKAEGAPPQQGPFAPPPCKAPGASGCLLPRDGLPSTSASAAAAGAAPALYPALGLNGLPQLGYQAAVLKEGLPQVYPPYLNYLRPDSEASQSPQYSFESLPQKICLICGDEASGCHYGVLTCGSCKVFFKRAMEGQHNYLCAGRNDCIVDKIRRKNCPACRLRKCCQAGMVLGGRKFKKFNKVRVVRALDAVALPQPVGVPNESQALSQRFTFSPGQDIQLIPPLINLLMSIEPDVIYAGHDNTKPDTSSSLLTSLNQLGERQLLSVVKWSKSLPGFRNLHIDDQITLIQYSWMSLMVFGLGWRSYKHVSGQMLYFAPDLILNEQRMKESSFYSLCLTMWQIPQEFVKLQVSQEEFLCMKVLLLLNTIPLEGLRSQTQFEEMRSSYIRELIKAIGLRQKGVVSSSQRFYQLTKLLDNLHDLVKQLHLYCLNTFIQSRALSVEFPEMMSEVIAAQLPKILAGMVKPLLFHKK
# Chain of UniProt P34981 (P34981 whole entry, looked up): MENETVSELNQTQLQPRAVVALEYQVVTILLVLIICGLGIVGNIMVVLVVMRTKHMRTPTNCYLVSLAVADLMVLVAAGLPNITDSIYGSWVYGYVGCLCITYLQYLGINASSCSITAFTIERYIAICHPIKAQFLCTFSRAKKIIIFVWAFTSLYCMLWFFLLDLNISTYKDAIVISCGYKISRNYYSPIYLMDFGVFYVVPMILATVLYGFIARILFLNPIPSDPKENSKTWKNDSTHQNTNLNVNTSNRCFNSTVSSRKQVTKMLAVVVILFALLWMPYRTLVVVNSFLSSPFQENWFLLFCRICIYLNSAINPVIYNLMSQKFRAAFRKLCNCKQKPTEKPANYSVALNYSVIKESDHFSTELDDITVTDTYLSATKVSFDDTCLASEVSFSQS
structure (smiles),measurement,setting,value
CCC[CH2][Sn]([CH2]CCC)([CH2]CCC)[O][Sn]([CH2]CCC)([CH2]CCC)[CH2]CCC,Potency,[1],active: 1.06 µM
same,Potency,[2],"inconclusive: 1.19 µM [cytotoxic, full curve]"
same,Potency,[3],active: 0.752 µM
same,Potency,[4],active: 1.68 µM
same,Potency,[5],active: 1.89 µM
same,Potency,[6],active: 1.51 µM
same,Potency,[7],"inconclusive: 1.2 µM [rising, partial curve]"
same,Potency,[8],active: 1.05 µM
same,Potency,[9],active: 1.35 µM
same,Potency,[10],"inconclusive: 0.956 µM [rising, full curve]"
same,Potency,[11],active: 0.533 µM
NCC(O)c1ccc(O)cc1 (stereo unspecified),Potency,[1],inactive
same,Potency,[2],inactive
CCOc1ccc(C(C)(C)COCc2cccc(Oc3ccccc3)c2)cc1,Potency,[1],"inconclusive: 34.4 µM [rising, partial curve]"
same,Potency,[3],inactive
same,Potency,[4],"inconclusive: 6.86 µM [rising, partial curve]"
same,Potency,[5],"inconclusive: 17.2 µM [rising, full curve]"
CCC(C)(C)c1ccc(O)cc1,Potency,[1],"inconclusive: 34.7 µM [cytotoxic, partial curve]"
same,Potency,[2],inactive
same,Potency,[3],inconclusive: 33.5 µM
same,Potency,[5],"inconclusive: 27.6 µM [cytotoxic, single point] and inactive"
same,"activity, negative = inhibition",[10],inconclusive: -23.5%
same,Potency,[11],"inconclusive: 79.4 µM [cytotoxic, partial curve, poor fit]"
same,Potency,[12],"inconclusive: 61.8 µM [activator] and inconclusive: 61.1 µM [activator] and inconclusive: 33.5 µM [activator, partial curve, poor fit]"
O=[N+]([O-])C(Br)(CO)CO,Potency,[1],"inconclusive: 54.5 µM [cytotoxic, partial curve, poor fit]"
same,Potency,[4],"inconclusive: 21.7 µM [rising, full curve, poor fit]"
Clc1ccccc1-c1ccccc1Cl,Potency,[1],"inconclusive: 98.3 µM [cytotoxic, single point]"
same,Potency,[4],"inconclusive: 17.5 µM [cytotoxic, single point]"
same,Potency,[13],"inconclusive: 78.8 µM [cytotoxic, partial curve, poor fit]"
same,Potency,[8],"inconclusive: 34.3 µM [inhibitor, partial curve]"
CC(C)[C@H](C(=O)OC(C#N)c1cccc(Oc2ccccc2)c1)c1ccc(OC(F)F)cc1 (stereo partly specified),Potency,[1],inactive
same,Potency,[3],"inconclusive: 12.2 µM [falling, full curve]"
same,Potency,[4],"inconclusive: 15.4 µM [rising, full curve]"
same,Potency,[5],"inconclusive: 15.4 µM [rising, full curve]"
same,"activity, negative = inhibition",[10],inconclusive: -0.399%
same,Potency,[14],"inconclusive: 68.6 µM [cytotoxic, single point]"
O=C(CCCN1CCC2(CC1)C(=O)NCN2c1ccccc1)c1ccc(F)cc1,Potency,[1],active: 13.3 µM
same,Potency,[15],"inconclusive: 6.68 µM [cytotoxic, partial curve]"
same,Potency,[3],inactive
same,Potency,[5],inactive
same,"activity, negative = inhibition",[10],inconclusive: 4.62% [at 35.3 µM]
O=[N+]([O-])c1ccc(O)c([N+](=O)[O-])c1,Potency,[1],"inconclusive: 9.69 µM [cytotoxic, partial curve]"
same,"activity change, negative = inhibition",[3],inconclusive: -56%
CCCN(CCC)c1c([N+](=O)[O-])cc(C(F)(F)F)cc1[N+](=O)[O-],Potency,[1],"inconclusive: 24.3 µM [rising, single point]"
same,"activity change, negative = inhibition",[3],inconclusive: -29.2%
Oc1ccc(-c2ccccc2)cc1,Potency,[1],"inconclusive: 42.7 µM [cytotoxic, partial curve] and inconclusive: 43.3 µM [cytotoxic, partial curve]"
same,Potency,[3],inconclusive: 17 µM and active: 15.4 µM
same,Potency,[5],"inconclusive: 67.7 µM [rising, single point]"
same,Potency,[11],"inconclusive: 70.8 µM [cytotoxic, single point]"
same,Potency,[14],active: 47.9 µM
CN1CCc2cc(Cl)c(O)cc2[C@H]2c3ccccc3CC[C@@H]21,Potency,[1],active: 15 µM
same,Potency,[15],"inconclusive: 13.3 µM [cytotoxic, partial curve]"
same,"activity change, negative = inhibition",[3],inconclusive: -36.3% [at 42.5 µM]
same,Potency,[5],"inconclusive: 10.6 µM [cytotoxic, partial curve, poor fit]"
same,Potency,[11],"inconclusive: 23.7 µM [cytotoxic, partial curve]"
same,Potency,[14],"inconclusive: 26.6 µM [cytotoxic, partial curve]"
CCN(N=O)C(N)=O,Potency,[1],inactive
same,Potency,[2],"inconclusive: 26.8 µM [falling, single point]"
same,Potency,[4],inactive
same,Potency,[5],"inconclusive: 2.68 µM [cytotoxic, single point] and inactive"
same,Potency,[9],inactive
